Source: the supplement of paper PMC3334620
Whole data set: some 33,000 sequences, median “E-score (-0.5 to 0.5)” near -0.021, cut for the highest 2% near 0.32. Some of the results follow.

target: T1, Zap1 (UniProt P47043); test: PBM E-score (8-mer binding enrichment) (E-score (-0.5 to 0.5)); higher = stronger / more preferred TF binding; most listed sequences are background and not binding sites; conditions: protein concentration: 200 nM; construct: GST-full length
T1 sequence: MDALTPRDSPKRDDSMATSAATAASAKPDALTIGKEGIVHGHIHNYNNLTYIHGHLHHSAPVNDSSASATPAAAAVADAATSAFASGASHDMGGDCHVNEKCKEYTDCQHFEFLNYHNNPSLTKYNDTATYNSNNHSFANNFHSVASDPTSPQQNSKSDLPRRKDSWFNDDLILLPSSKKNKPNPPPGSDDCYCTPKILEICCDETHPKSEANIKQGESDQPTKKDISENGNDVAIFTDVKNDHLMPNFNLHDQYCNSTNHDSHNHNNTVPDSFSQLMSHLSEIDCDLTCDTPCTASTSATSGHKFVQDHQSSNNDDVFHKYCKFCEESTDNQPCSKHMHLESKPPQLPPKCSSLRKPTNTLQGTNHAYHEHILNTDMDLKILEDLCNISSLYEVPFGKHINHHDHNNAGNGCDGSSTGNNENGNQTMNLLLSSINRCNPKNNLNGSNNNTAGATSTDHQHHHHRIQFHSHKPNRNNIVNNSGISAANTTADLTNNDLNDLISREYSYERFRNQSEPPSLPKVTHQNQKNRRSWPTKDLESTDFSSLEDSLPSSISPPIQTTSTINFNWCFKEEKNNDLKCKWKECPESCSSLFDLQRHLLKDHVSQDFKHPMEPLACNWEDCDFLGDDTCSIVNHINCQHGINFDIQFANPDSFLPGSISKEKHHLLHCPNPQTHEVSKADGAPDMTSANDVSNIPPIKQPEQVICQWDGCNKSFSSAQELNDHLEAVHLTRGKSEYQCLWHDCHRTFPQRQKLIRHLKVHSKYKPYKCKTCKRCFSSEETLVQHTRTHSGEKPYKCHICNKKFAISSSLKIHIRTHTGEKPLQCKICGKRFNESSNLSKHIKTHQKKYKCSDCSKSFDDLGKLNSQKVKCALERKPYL
Method in brief: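 Universal all-10-mer Agilent arrays, double-stranded by primer extension on fresh or once-stripped slides, were probed with about 100-200 nM GST-tagged yeast transcription factors made by PURExpress. Fluorescent anti-GST detected bound protein, and masliner normalised the scans. E-scores from the Universal PBM Analysis Suite were given to each ungapped eight-base word pooled with its reverse complement.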

| Sequence | PBM E-score |
| --- | --- |
| CAATAACA | 0.0373 |
| CCAAGGAC | -0.00128 |
| CAAGCTGC | -0.118 |
| AGTGCTAC | -0.179 |
| AGAATTGC | -0.0387 |
| TGAGCAAA | 0.00108 |
| TCGATCAA | -0.00608 |
| AGAACGCA | -0.0824 |
| TCTGTCAA | -0.113 |
| ATGTCCGC | -0.033 |
| CTGTCTGA | -0.109 |
| CGTGCATA | -0.0651 |
| TTAGATAA | 0.0775 |
| TCGGACAA | 0.0839 |
| GACATCGC | -0.157 |
| ATAAGGTG | 0.257 |
| ATGGTCCA | 0.0137 |
| CACAAAAC | 0.23 |
| CCCCATCC | 0.0278 |
| GAATTATC | 0.064 |
| CTCGTATC | 0.125 |
| CAACAGTC | -0.267 |

| Sequence | PBM E-score |
| --- | --- |
| CGGTTTCC | 0.0737 |
| AATCACGA | -0.0428 |
| CCCTAGGA | 0.0656 |
| AGGTACAT | 0.156 |
| CCGAAGAA | -0.075 |
| ACGAACCC | 0.0823 |
| TATACTCA | 0.0941 |
| ATAATTTC | 0.106 |
| GCTCCTCA | -0.203 |
| AGTCAGTA | -0.0932 |
| GCCAAACC | 0.00737 |
| ATCCTATC | -0.0869 |
| GTGAGACA | -0.0104 |
| AGTCCTTC | -0.331 |
| ATAGGAAA | 0.077 |
| CGATGCCG | -0.11 |
| CCCATCCA | -0.00181 |
| CAAAGCAA | 0.148 |
| CGAGCGGC | -0.0829 |
| GCCGGCCA | -0.0187 |
| ACTCAACC | 0.153 |
| AATTCCGG | 0.0635 |

| Sequence | PBM E-score |
| --- | --- |
| AGTCAGTC | -0.271 |
| GAGCTAAC | 0.0901 |
| ACCCCAAT | 0.211 |
| CTAGGACC | 0.0113 |
| AGTAGAGA | -0.131 |
| CCCGCGTA | 0.00687 |
| TACCGGAA | 0.178 |
| CTCGGTAC | -0.0929 |
| CCCGACAA | 0.132 |
| GCGCTCAC | -0.198 |
| ACAATGGG | -0.0216 |
| CGTCTGTA | -0.0155 |
| AGTATAAA | 0.306 |
| GAGCGGGC | -0.271 |
| ATGGGCAC | 0.0961 |
| AGGATGAA | -0.1 |
| AGACAATC | -0.107 |
| AAAGCTCA | -0.116 |
| AGTCCCGG | -0.15 |
| GAAACCCA | 0.246 |
| CTTAACAA | 0.112 |
| TGAGACCA | -0.0352 |

| Sequence | PBM E-score |
| --- | --- |
| ATCTGTTG | -0.124 |
| GCGCTATA | -0.105 |
| AGCTGCGG | -0.323 |
| CACGTTAA | 0.0562 |
| ACAGATCG | -0.141 |
| AAGCCTAG | -0.14 |
| CTGCACGC | -0.159 |
| ACAAGAAA | 0.19 |
| ACCAGGAC | 0.14 |
| AGGCGAGA | -0.172 |
| AGAATGAG | -0.192 |
| CGTAGGAC | -0.0801 |
| GACACAAA | 0.192 |
| CCTTTCTA | 0.121 |
| CGGAATCC | -0.133 |
| CTCGTGCA | -0.00737 |
| AATCCATA | 0.0606 |
| CGCGATAC | 0.0894 |
| AGAATCAC | -0.168 |
| CCACGTCG | -0.157 |
| ACAACGGG | -0.0221 |
